Test results taken from paper PMC7937711, “Development and Characterization of Nanobodies Targeting the Kupffer Cell” (Frontiers in Immunology, 2021).

Molecular target: T1, recombinant mouse Clec4F (CLEC4F/CLECSF13), soluble extracellular domain Ala65-Gly548 (mouse) (UniProt P70194)
T1 sequence: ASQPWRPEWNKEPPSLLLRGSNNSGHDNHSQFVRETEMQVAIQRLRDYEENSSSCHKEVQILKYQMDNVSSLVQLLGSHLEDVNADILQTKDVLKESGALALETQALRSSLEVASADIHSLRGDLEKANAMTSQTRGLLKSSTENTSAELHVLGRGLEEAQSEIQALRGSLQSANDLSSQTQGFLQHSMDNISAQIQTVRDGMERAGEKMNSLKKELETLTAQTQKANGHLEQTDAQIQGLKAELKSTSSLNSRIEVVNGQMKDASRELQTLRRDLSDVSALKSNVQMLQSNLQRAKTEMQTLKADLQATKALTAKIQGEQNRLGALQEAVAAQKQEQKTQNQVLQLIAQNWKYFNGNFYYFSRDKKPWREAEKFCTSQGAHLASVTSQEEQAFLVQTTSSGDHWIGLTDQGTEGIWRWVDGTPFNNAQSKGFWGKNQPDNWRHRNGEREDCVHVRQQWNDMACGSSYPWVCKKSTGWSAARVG
Test: SPR; Biacore T200; 400 RU of recombinant mouse Clec4F coupled to a CM5 chip; nanobodies flown at 30 ul/min at 1-400 nM; 1:1 binding model

B1: Nb14.70 (VHH)
VHH: QVQLVESGGGLVQAGDSLSLVCTLPERSRFAVGWFRQASGKEREIVAAISWLGMNEYYGDSVKGRSTISRDNAKNTVRLQMDSLKREDTAVYYCAADYSLDNVRRTPRFWGQGTQVTVSS
Q: B1 was tested. Which Kd did it give?
A: 1.98 nM and 0.19 nM [columns of one line]

For part of its entries the source gives two or more results. This list holds those alone. There may be further records. Values given together appear to be repeats on other runs, samples or individuals.
